From the supplement of paper PMC3334620
Whole data set: some 33,000 sequences, median “E-score (-0.5 to 0.5)” near -0.013, cut for the highest 2% near 0.3. This is one part of the list.

What follows are sequences tested against T1, Msn1 (UniProt P22148) (assay: PBM E-score (8-mer binding enrichment) (E-score (-0.5 to 0.5)); higher = stronger / more preferred TF binding; most listed sequences are background and not binding sites). Conditions: protein concentration: 200 nM; construct: GST-full length.
T1 sequence: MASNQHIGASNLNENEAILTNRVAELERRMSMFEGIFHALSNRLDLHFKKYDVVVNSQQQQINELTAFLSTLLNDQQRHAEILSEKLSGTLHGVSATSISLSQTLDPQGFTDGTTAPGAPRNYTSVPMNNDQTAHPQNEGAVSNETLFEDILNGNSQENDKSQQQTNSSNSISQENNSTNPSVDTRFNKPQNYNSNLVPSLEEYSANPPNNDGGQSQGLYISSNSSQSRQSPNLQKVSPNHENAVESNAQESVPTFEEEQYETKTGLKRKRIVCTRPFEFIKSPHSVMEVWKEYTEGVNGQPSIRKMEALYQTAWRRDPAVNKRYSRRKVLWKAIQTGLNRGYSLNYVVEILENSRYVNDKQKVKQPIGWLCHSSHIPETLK
In short: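 Masliner-normalised scans of fluorescent anti-GST signal were the basis for scoring. That signal came from GST-tagged yeast transcription factors applied at about 100-200 nM to double-stranded universal all-10-mer Agilent arrays on fresh or once-stripped slides. Each ungapped eight-base word, pooled with its reverse complement, received an E-score from the Universal PBM Analysis Suite.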

Row | Sequence | PBM E-score
1 | CACTCATC | -0.0277
2 | CGCGCCAC | -0.107
3 | AGACCCAA | -0.0078
4 | GGTGAGTA | -0.0822
5 | AGCAGCGC | -0.192
6 | GGTGGTAC | -0.152
7 | AACCAACG | -0.12
8 | TATTTCGA | 0.198
9 | AGACACCG | -0.00613
10 | ACCCATGC | -0.0139
11 | TCATCAGA | -0.048
12 | ACGGGGCC | -0.135
13 | CTCGATCC | -0.0388
14 | CTTTAAGC | 0.0544
15 | CTCTACCC | -0.123
16 | AAGATCTC | -0.131
17 | GGGAACAC | -0.0262
18 | CGACCAAC | 0.113
19 | AATACTAG | 0.18
20 | CCTCCCTA | -0.339
21 | CTCAGCTC | -0.216
22 | GATGGAGA | -0.121
23 | ATGACAGC | 0.149
24 | GAGGAAGC | -0.263
25 | CAGATGTC | 0.347

Row | Sequence | PBM E-score
26 | ACTCCCGG | -0.133
27 | CACACGTC | -0.0386
28 | AAGTCACT | 0.0426
29 | AACGGAGC | -0.0993
30 | CCCCGTAC | -0.253
31 | GGCTGCCA | -0.151
32 | ATTGTTCC | 0.184
33 | AGGCGGAG | -0.0536
34 | AGTCGGCA | -0.0568
35 | GCGCAGCC | -0.208
36 | AGAGATTG | -0.0815
37 | AGAGCTGA | -0.18
38 | AAGCTCGG | -0.046
39 | ACCGCTTA | -0.0219
40 | CTCCTAAA | -0.216
41 | CAATATTA | 0.203
42 | TAGGAAAA | -0.0767
43 | AATCGCTG | -0.0505
44 | CGAATGTA | -0.00301
45 | AATCCCCC | -0.346
46 | GCGGCAAA | -0.184
47 | ATGTAATC | 0.031
48 | CGCCATTA | -0.149
49 | CTGCAAAC | -0.122
50 | CAGCAAGA | -0.00404

Row | Sequence | PBM E-score
51 | GACTTGAC | -0.0214
52 | AATGAAGC | 0.00995
53 | CCCTGTCC | -0.0435
54 | CCGTCTTA | -0.21
55 | ATGGTCAG | 0.0725
56 | TATGAAAA | 0.185
57 | GAACTGGA | 0.0885
58 | CGCGTGAA | 0.00598
59 | AGGATTAA | -0.0123
60 | TGAGCTAA | -0.16
61 | AGAGACAA | 0.375
62 | GATAGGCA | -0.0844
63 | CAAACTCC | 0.195
64 | GGAGCTAA | -0.248
65 | AACATGGT | 0.013
66 | ACAAATGA | 0.317
67 | AGACTACT | -0.0193
68 | CGAGCCGC | 0.0295
69 | ATCCTAAC | 0.0664
70 | AGGTAAGG | -0.00566
71 | GGACGCCA | -0.112
72 | CATAGGGG | -0.223
73 | GCCGACCA | 0.0498
74 | AGCGCCTG | -0.176
75 | GACCATTA | 0.0825

Row | Sequence | PBM E-score
76 | ACTTACAC | 0.0582
77 | CAATGTCG | 0.323
78 | AATGAGTC | -0.086
79 | CTTAGCGA | 0.0418
80 | GCGTTGCC | -0.157
81 | AAGAAGCT | -0.0326
82 | ATGCTTAG | -0.0632
83 | AACAAGCG | 0.187
84 | TACCGAAA | 0.0647
85 | CCTTACAC | -0.0848
86 | TACACAGA | 0.0519
87 | AAGGCACG | -0.0969
88 | AAGTAAGA | -0.0138
89 | GCGCTACA | -0.0869
90 | AAATTCCC | -0.0722
91 | AATGGCGT | -0.0206
92 | GGGGGATA | -0.34
93 | GCTAACGA | -0.026
94 | CATAAATG | 0.125
95 | AACTTACA | 0.0502
96 | CATCTTTC | 0.104
97 | ACACCCAT | -0.0925
98 | GACAGGAC | 0.17
99 | ACTCATCG | -0.0482
100 | GGCCAGGA | -0.0726

Row | Sequence | PBM E-score
101 | CGTGTCCC | 0.437
102 | GGCCTAGA | -0.231
103 | AGGTAGTC | -0.221
104 | AGCCAGAC | -0.072
105 | ACTCTGAC | -0.0936
106 | CGTAAAAC | -0.157
107 | GTAGCCTA | -0.0816
108 | CGACATTA | 0.386
109 | GCATTGAA | -0.0579
110 | GTAGCGAC | -0.0946
111 | GTGAAACA | 0.0944
112 | CCCCCAGG | -0.425
113 | GGTCCATA | -0.0838
114 | ATCCTGGA | 0.0779
115 | ATGATTTC | 0.239
116 | GTTAATGA | 0.169
117 | CACGCAGG | -0.16
118 | AAGACATC | 0.281
119 | CGACAGCC | -0.118
120 | CCATAGCC | -0.171
121 | CAGCCCCG | -0.05
122 | CCGGCCGA | 0.106
123 | TAGCGTCA | -0.0365
124 | ATCGGCAT | 0.171
125 | CACTCTTC | -0.0808

Row | Sequence | PBM E-score
126 | CAGTTGCA | -0.0789
127 | CATGTTAC | 0.136
128 | GTAGCAAA | 0.263
129 | ACCCTCAC | -0.0928
130 | AAACCAGG | 0.11
131 | ATAGCTGA | -0.0951
132 | GATTTCCA | -0.0716
133 | AAGCTAGA | 0.0495
134 | CGCACCTC | -0.195
135 | GGAAGATA | 0.0803
136 | GAGTGGAC | 0.0922
137 | GCGATGAC | 0.0728
138 | CCGTGATA | 0.0429
139 | AAAATGTG | 0.0654
140 | CACCCCAG | -0.245
141 | AATCCACA | -0.00182
142 | CCGTCAAC | -0.203
143 | AGGTTGGG | -0.146
144 | TCACCCCA | 0.108
145 | AGTATGAC | 0.192
146 | AATATCCA | 0.0869
147 | GTCGTGTA | 0.218
148 | AACCCACG | -0.0758
149 | ATATAGAT | 0.0925
150 | AAGGAGCG | -0.257

Row | Sequence | PBM E-score
151 | GTCTGGAA | 0.0274
152 | GACGTTAC | 0.0854
153 | AAGATGGC | -0.1
154 | AATTCACC | 0.015
155 | GATATCCC | 0.027
156 | CAATGTGC | -0.121
157 | GATATGCA | -0.00613
158 | ACGGATCC | -0.0588
159 | ATGATCGA | -0.146
160 | AGGGTACC | -0.155
161 | GCGACATA | 0.299
162 | GTGCAACA | -0.164
163 | TACCCTAA | -0.0527
164 | AGGTTTAT | 0.0341
165 | GTGTGATA | 0.00765
166 | CACTTACC | -0.0507
167 | GAAGTAAC | -0.0192
168 | TGCCATAA | 0.117
169 | CGGGGAAA | 0.163
170 | CCTGTGCG | -0.063
171 | CAACTTAA | 0.0732
172 | CGATGTTA | 0.183
